Test results published in the antibiotic and cytotoxicity screens of Wong et al. (2023).
This is one part of the list.

Each molecule was assayed on HSkMC (human skeletal muscle cells) (assay: cytotoxicity call (relative viability < 0.9)). Conditions: 10 µM.
For `C[C@@]12CCC[C@](C)(C(=O)O[C@@H]3O[C@H](CO)[C@@H](O)[C@H](O)[C@H]3O)[C@@H]1CC[C@]13C[C@H](CC[C@@H]12)[C@](O)(CO)C3`, the cytotoxicity call was “inactive”.
`COCC#Cc1ccc2c(c1)O[C@@H](CN(C)C(=O)Nc1ccccc1F)[C@H](C)CN([C@H](C)CO)S2(=O)=O` was tested, and the cytotoxicity call was “inactive”.
For `C[C@@H]1CCCCO[C@H](CN(C)C(=O)c2ccncc2)[C@H](C)CN([C@@H](C)CO)C(=O)c2cc(NC(=O)NC3CCCCC3)ccc2O1`, the cytotoxicity call was “inactive”.
With `C[C@@H]1CN([C@H](C)CO)C(=O)Cc2cc(NS(=O)(=O)c3cccs3)ccc2O[C@@H]1CN(C)S(=O)(=O)c1cccs1` the cytotoxicity call was “inactive”.
In the case of `CO[C@H]1CN(C)C(=O)c2cc(NC(=O)Nc3cccc(F)c3)ccc2OC[C@H](C)N(C(=O)Nc2c(C)noc2C)C[C@@H]1C`, the cytotoxicity call is reported as “inactive”.
For `C[C@@H]1CCCCO[C@H](CN(C)C(=O)Nc2ccc(C(F)(F)F)cc2)[C@@H](C)CN([C@H](C)CO)C(=O)c2cc(N(C)C)ccc2O1`, the cytotoxicity call was “inactive”.
With `O=C(C1=C[C@@H](c2ccc(C(F)(F)F)cc2)C[C@@H](OCc2ccc(CO)cc2)O1)N1CCN(Cc2ccc3c(c2)OCO3)CC1` the cytotoxicity call was “inactive”.
For `C[C@H]1CN([C@@H](C)CO)C(=O)Cc2cc(NS(=O)(=O)c3cn(C)cn3)ccc2O[C@H]1CN(C)S(=O)(=O)c1ccc(Cl)cc1`, the cytotoxicity call was “inactive”.
For `COc1cc(C)c2c(=O)c(-c3ccccc3)coc2c1`, the cytotoxicity call was “inactive”.
In the case of `C[C@H](CO)N1C[C@H](C)[C@@H](CN(C)C(=O)c2ccncc2)Oc2cc(C#CC3(O)CCCC3)ccc2S1(=O)=O`, the cytotoxicity call is reported as “inactive”.
`C[C@@H]1CN([C@H](C)CO)C(=O)c2c(c3ccccc3n2C)-c2ccccc2CO[C@@H]1CN(C)Cc1cccc(O)c1` was tested, and the cytotoxicity call was “inactive”.
In the case of `CC(C)NC(=O)Nc1ccc2c(c1)C(=O)N(C)[C@H]1CC[C@@H](CC(=O)NCc3ccc(F)cc3)O[C@H]1CO2`, the cytotoxicity call is reported as “inactive”.
With `COc1ccc(S(=O)(=O)N(C)C[C@@H]2OCCCC[C@H](C)Oc3ccc(NC(=O)Nc4cccc5ccccc45)cc3C(=O)N([C@H](C)CO)C[C@H]2C)cc1` the cytotoxicity call was “inactive”.
For `O=C(O)CCNC(=O)c1ccccc1`, the cytotoxicity call was “inactive”.
`C[C@H]1CN([C@@H](C)CO)C(=O)c2cc(NC(=O)Cc3cn(C)c4ccccc34)ccc2O[C@H]1CN(C)Cc1ccc(C(F)(F)F)cc1` was tested, and the cytotoxicity call was “inactive”.
With `C[C@@H]1CN([C@@H](C)CO)C(=O)c2cc(NS(=O)(=O)c3ccc(F)cc3)ccc2O[C@@H]1CN(C)Cc1ccc(Oc2ccccc2)cc1` the cytotoxicity call was “active”.
For `C[C@H](CO)N1C[C@H](C)[C@H](CN(C)S(=O)(=O)c2ccc(F)cc2)Oc2c(NC(=O)C3CCOCC3)cccc2C1=O`, the cytotoxicity call was “inactive”.
In the case of `Cc1cn([C@H]2C[C@H](N=[N+]=[N-])[C@@H](CO)O2)c(=O)[nH]c1=O`, the cytotoxicity call is reported as “inactive”.
For `Nc1cnc(Cl)cn1`, the cytotoxicity call was “inactive”.
`Oc1ccnc(S)n1` was tested, and the cytotoxicity call was “inactive”.
In the case of `Cc1noc(C)c1NC(=O)N(C)C[C@@H]1Oc2ncc(C#CCC(C)C)cc2C(=O)N([C@H](C)CO)C[C@@H]1C`, the cytotoxicity call is reported as “inactive”.
In the case of `C[C@@H]1CN([C@@H](C)CO)C(=O)c2cccc(NC(=O)c3ccc(-c4nccs4)cc3)c2O[C@@H]1CN(C)S(=O)(=O)c1cn(C)cn1`, the cytotoxicity call is reported as “inactive”.
For `C[C@H]1CN([C@@H](C)CO)C(=O)c2c(c3ccccc3n2C)-c2ccccc2CO[C@H]1CN(C)Cc1ccc(O)cc1`, the cytotoxicity call was “inactive”.
With `COc1ccc(NC(=O)N(C)C[C@H]2Oc3ccc(NC(=O)Nc4ccc(C(F)(F)F)cc4)cc3CC(=O)N([C@H](C)CO)C[C@@H]2C)cc1` the cytotoxicity call was “inactive”.
`Cc1ccc(S(=O)(=O)N(C)C[C@H]2OCCCC[C@H](C)Oc3ccc(NC(=O)Nc4c(C)noc4C)cc3C(=O)N([C@@H](C)CO)C[C@H]2C)cc1` was tested, and the cytotoxicity call was “inactive”.
For `C[C@H]1CCN=C(N)S1`, the cytotoxicity call was “inactive”.
`C[C@@H](NC(=O)C[C@H]1C=C[C@H](NC(=O)CN2CCOCC2)[C@@H](CO)O1)c1ccccc1` was tested, and the cytotoxicity call was “inactive”.
In the case of `C=CCOC(=O)[C@@H]1[C@H]2C(=O)O[C@H](c3ccccc3)[C@H](c3ccccc3)N2[C@H](c2ccc(OCCOC(=O)[C@@H]3C[C@@H]4C(=O)N5CCC[C@H]5C(=O)N4[C@@H]3c3ccc(O)cc3)cc2)[C@@]12C(=O)Nc1ccc(I)cc12`, the cytotoxicity call is reported as “inactive”.
For `Cc1ccccc1S(=O)(=O)N1[C@@H]2c3cccc(=O)n3C[C@H]1[C@H](CO)[C@H]2C(=O)N1CCOCC1`, the cytotoxicity call was “inactive”.
`CCOc1ccc(Nc2nc3c(=O)nc[nH]c3n2[C@H]2O[C@@H](CO)[C@@H](O)[C@@H]2O)cc1` was tested, and the cytotoxicity call was “inactive”.
For `C[C@H]1CCCCO[C@H](CN(C)S(=O)(=O)c2cccs2)[C@@H](C)CN([C@@H](C)CO)C(=O)c2cc(NC(=O)Nc3ccc(C(F)(F)F)cc3)ccc2O1`, the cytotoxicity call was “inactive”.
With `CN(C)CCC=C1c2ccccc2Sc2ccc(Cl)cc21.Cl` the cytotoxicity call was “inactive”.
In the case of `COc1ccccc1C(=O)Nc1ccc2c(c1)C(=O)N(C)[C@H]1CC[C@H](CC(=O)Nc3cccc(C(C)C)c3)O[C@@H]1CO2`, the cytotoxicity call is reported as “inactive”.
In the case of `C[C@H]1CN([C@@H](C)CO)C(=O)Cc2cc(NS(C)(=O)=O)ccc2O[C@@H]1CN(C)S(=O)(=O)c1ccc(Cl)cc1`, the cytotoxicity call is reported as “inactive”.
In the case of `O=C(O)CCCCCCC(=O)Nc1ccc([C@@H]2O[C@@H](CSCCO)C[C@H](c3ccccc3)O2)cc1`, the cytotoxicity call is reported as “inactive”.
In the case of `O=C(C[C@@H]1CC[C@@H]2[C@H](COC[C@@H](O)CN2S(=O)(=O)c2ccc(Cl)cc2)O1)N[C@H]1CCN(Cc2ccccc2)C1`, the cytotoxicity call is reported as “inactive”.
In the case of `COc1ccc(NC(=O)Nc2ccc3c(c2)C(=O)N([C@@H](C)CO)C[C@@H](C)[C@@H](CN(C)C(=O)CCC(F)(F)F)OCCCC[C@H](C)O3)cc1`, the cytotoxicity call is reported as “inactive”.
For `C[C@@H]1CCCCO[C@@H](CN(C)CC2CCCCC2)[C@@H](C)CN([C@H](C)CO)C(=O)c2cc(NC(=O)CCC(F)(F)F)ccc2O1`, the cytotoxicity call was “inactive”.
For `COCC(=O)N(C)C[C@@H]1Oc2cc(C#CCC3CCCC3)ccc2S(=O)(=O)N([C@H](C)CO)C[C@@H]1C`, the cytotoxicity call was “inactive”.
For `C[C@@H]1CN([C@H](C)CO)C(=O)c2cc(C#CCN(C)C)cnc2O[C@H]1CN(C)C(=O)Nc1cccc(F)c1`, the cytotoxicity call was “inactive”.
